# Measured values published in PMC4786724, “NdhM Subunit Is Required for the Stability and the Function of NAD(P)H Dehydrogenase Complexes Involved in CO2 Uptake in Synechocystis sp. Strain PCC 6803* ^([image sbox.jpg])” (The Journal of Biological Chemistry, 2015).
# Like-named read-outs stand apart in the source and are kept apart here. Results are given in words; binding and its absence hold for the method and conditions named. Some binding calls cover weakened binding; strength is not graded here. For part of these data: Sequences can lack the tags named with a protein.
# T1: GST-NdhM (Synechocystis sp. PCC 6803) (UniProt P74338)
# T1 sequence: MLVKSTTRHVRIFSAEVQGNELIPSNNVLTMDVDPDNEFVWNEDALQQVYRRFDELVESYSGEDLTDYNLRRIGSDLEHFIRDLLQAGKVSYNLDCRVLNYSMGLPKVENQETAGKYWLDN
# T2: NdhM bait construct in pGBKT7 (Gal4 DNA binding domain) (Synechocystis sp. PCC 6803) (UniProt P74338)
# T2 sequence: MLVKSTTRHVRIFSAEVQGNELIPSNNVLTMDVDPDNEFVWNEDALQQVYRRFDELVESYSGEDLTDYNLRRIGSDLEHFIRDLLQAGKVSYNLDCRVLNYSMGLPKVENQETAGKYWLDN
# T3: NdhH subunit (endogenous, cytoplasmic fraction) (Synechocystis sp. PCC 6803 (endogenous in the wild-type strain)) (UniProt P27724)
# T3 sequence: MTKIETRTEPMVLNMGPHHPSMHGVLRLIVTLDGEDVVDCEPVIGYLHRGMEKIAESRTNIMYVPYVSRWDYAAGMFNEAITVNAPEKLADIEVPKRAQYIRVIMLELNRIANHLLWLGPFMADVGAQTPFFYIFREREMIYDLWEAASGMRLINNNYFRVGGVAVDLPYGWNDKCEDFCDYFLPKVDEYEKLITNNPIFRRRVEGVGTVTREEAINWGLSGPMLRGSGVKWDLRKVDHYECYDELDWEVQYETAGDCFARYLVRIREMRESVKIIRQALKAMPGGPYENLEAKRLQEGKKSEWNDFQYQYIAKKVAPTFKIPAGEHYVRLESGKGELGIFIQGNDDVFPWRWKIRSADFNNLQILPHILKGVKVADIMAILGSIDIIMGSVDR
# Tests used:
# [1] = molecular target: T1, GST-NdhM (Synechocystis sp. PCC 6803); experiment: pull-down; GST-NdhM on glutathione-Sepharose 4B resin as bait, His-tagged Ndh subunits as prey; 2 h at 4 °C in 20 mM Tris-HCl pH 7.5, 100 mM NaCl, 0.1 mM EDTA, 0.2% Triton, 10% glycerol; washed five times with 300 mM NaCl, 0.5% Nonidet P-40; eluates blotted with anti-His antibody; both purified
# [2] = molecular target: T2, NdhM bait construct in pGBKT7 (Gal4 DNA binding domain) (Synechocystis sp. PCC 6803); experiment: two-hybrid; NdhM in pGBKT7 (Gal4 DNA binding domain) as bait, Ndh subunits in pGADT7 (Gal4 activation domain) as prey; S. cerevisiae AH109; growth on medium lacking Trp, Leu, His and Ade, 30 °C, 6 days
# [3] = molecular target: T3, NdhH subunit (endogenous, cytoplasmic fraction) (Synechocystis sp. PCC 6803 (endogenous in the wild-type strain)); experiment: native gel or EMSA; clear native PAGE (5-13% gradient, 4 °C) of 50 μg of cytoplasmic proteins of wild-type Synechocystis 6803, then second-dimension SDS-PAGE and immunoblotting with antibodies against Ndh subunits; subunits found in the same subcomplex
# [4] = molecular target: T1, GST-NdhM (Synechocystis sp. PCC 6803); experiment: pull-down; GST-NdhM on glutathione-Sepharose 4B resin as bait, His-tagged Ndh subunits as prey; 2 h at 4 °C in 20 mM Tris-HCl pH 7.5, 100 mM NaCl, 0.1 mM EDTA, 0.2% Triton, 10% glycerol; washed five times with 300 mM NaCl, 0.5% Nonidet P-40; eluates blotted with anti-His antibody; both purified; remark: listed apart in the source
molecule,measurement,setting,value
NdhJ-His6 (from UniProt P19125 1-179),binding,[1],binds weakly
NdhI prey construct in pGADT7 (Gal4 activation domain) (from UniProt P26525 1-193),binding,[2],binds
"NdhH prey construct in pGADT7 (Gal4 activation domain) (protein, UniProt P27724 1-394) MTKIETRTEPMVLNMGPHHPSMHGVLRLIVTLDGEDVVDCEPVIGYLHRGMEKIAESRTNIMYVPYVSRWDYAAGMFNEAITVNAPEKLADIEVPKRAQYIRVIMLELNRIANHLLWLGPFMADVGAQTPFFYIFREREMIYDLWEAASGMRLINNNYFRVGGVAVDLPYGWNDKCEDFCDYFLPKVDEYEKLITNNPIFRRRVEGVGTVTREEAINWGLSGPMLRGSGVKWDLRKVDHYECYDELDWEVQYETAGDCFARYLVRIREMRESVKIIRQALKAMPGGPYENLEAKRLQEGKKSEWNDFQYQYIAKKVAPTFKIPAGEHYVRLESGKGELGIFIQGNDDVFPWRWKIRSADFNNLQILPHILKGVKVADIMAILGSIDIIMGSVDR",binding,[2],binds
"GST-NdhM (natural protein, Synechocystis sp. PCC 6803, UniProt P74338 1-121, looked up, NdhM subunit of NDH-1, Synechocystis sp; PCC 6803, gene slr1623 (ndhM); fragment containing ndhM cloned into pGEX-4T-1; also called recombinant NdhM fused with GST; NdhM fused to GST; source: E. coli BL21(DE3) pLysS, purified (glutathione-Sepharose 4B column)) MLVKSTTRHVRIFSAEVQGNELIPSNNVLTMDVDPDNEFVWNEDALQQVYRRFDELVESYSGEDLTDYNLRRIGSDLEHFIRDLLQAGKVSYNLDCRVLNYSMGLPKVENQETAGKYWLDN",binding,[3],binds
"NdhN-His6 (protein, UniProt P74069 1-161) MLPLPLIANGKGFIRALENDGALAVYAPLEGGYEGRYQRRLRANGYASISLSARGLGDVEAYLMQVHGVRPAHLGKKNIAQEGAVGPIYFAQPIAGYQLENLPAQSKGLVLWILEGYILSQTEIQDLISLTKRVPKLKVVLEMGGDRVFRWQPLLDCLQAA",binding,[4],no binding
"NdhO-His6 (protein, UniProt P74771 1-72) MAAKMKKGSLVRVIRAQLENSLEAQASDRRLPDYLFHSKGEVLDLNEEYALVRFYVPTPNVWLRLDQIEALA",binding,[4],no binding
"NdhL prey construct in pGADT7 (Gal4 activation domain) (protein, UniProt P27372 1-80) MEDLLGLLLSETGLLAIIYLGLSLAYLLVFPALLYWYLQKRWYVASSVERLVMYFLVFLFFPGLLVLSPVLNLRPRRQAA",binding,[2],no binding
"NdhN prey construct in pGADT7 (Gal4 activation domain) (protein, UniProt P74069 1-161) MLPLPLIANGKGFIRALENDGALAVYAPLEGGYEGRYQRRLRANGYASISLSARGLGDVEAYLMQVHGVRPAHLGKKNIAQEGAVGPIYFAQPIAGYQLENLPAQSKGLVLWILEGYILSQTEIQDLISLTKRVPKLKVVLEMGGDRVFRWQPLLDCLQAA",binding,[2],no binding
"NdhO prey construct in pGADT7 (Gal4 activation domain) (protein, UniProt P74771 1-72) MAAKMKKGSLVRVIRAQLENSLEAQASDRRLPDYLFHSKGEVLDLNEEYALVRFYVPTPNVWLRLDQIEALA",binding,[2],no binding
